US20260085122A1 (BEONE MEDICINES I, published 2026)

T1: hu 4Ig-B7H3 ECD-mIgG2a (human)
T1 construct: Made in house in HEK293-based cells; also called mIgG2a Fc-fusion protein of hu 4Ig-B7H3 ECD
T1 chain: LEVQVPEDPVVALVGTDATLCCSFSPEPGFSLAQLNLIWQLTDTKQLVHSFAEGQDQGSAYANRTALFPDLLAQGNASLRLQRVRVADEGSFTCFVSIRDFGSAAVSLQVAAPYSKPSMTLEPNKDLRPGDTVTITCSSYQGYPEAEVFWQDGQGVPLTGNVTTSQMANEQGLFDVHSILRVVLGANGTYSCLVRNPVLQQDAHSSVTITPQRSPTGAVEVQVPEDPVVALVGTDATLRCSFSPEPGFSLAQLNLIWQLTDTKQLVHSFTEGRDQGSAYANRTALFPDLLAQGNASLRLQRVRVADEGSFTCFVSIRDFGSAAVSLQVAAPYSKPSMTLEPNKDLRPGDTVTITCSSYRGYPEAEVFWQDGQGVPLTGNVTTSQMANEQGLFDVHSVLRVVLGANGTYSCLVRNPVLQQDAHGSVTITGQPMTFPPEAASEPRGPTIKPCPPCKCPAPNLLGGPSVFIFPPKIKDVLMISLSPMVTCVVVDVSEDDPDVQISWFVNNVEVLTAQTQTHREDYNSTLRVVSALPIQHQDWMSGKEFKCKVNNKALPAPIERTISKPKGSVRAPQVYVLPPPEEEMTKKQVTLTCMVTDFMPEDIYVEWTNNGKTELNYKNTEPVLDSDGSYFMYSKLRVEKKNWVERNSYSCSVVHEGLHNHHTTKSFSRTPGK

T2: mouse B7H3-his (mouse, UniProt Q8VE98)
T2 construct: recombinant, His-tagged; not in the list MOLECULES; also called mouse B7H3-His (SinoBiological, 50973-M08H)
T2 sequence (antigen coated on the ELISA plate, looked up): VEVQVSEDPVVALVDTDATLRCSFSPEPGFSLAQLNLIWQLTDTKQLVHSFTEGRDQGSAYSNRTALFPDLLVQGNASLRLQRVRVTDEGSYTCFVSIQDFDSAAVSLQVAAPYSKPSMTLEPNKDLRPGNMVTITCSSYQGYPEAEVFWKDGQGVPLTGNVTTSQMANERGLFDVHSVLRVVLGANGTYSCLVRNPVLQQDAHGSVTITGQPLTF


Legend:
hu 4Ig-B7H3 ECD-mIgG2a = target: T1, hu 4Ig-B7H3 ECD-mIgG2a; assay: antigen ELISA, antigen coated, detection with HRP anti-human IgG
Procedure: (§1) For antigen ELISA, a Maxisorp immunoplate was coated with antigen hu 4Ig-B7H3 ECD-mIgG2a or mouse B7H3-his (SinoBiological, 50973-M08H) and blocked with 3% BSA (w/v) in PBS buffer (blocking buffer). Monoclonal VHH antibodies were added to wells of the ELISA plate for 1 hour. After washes with TBST, bound antibodies were detected using HRP-conjugated anti-human IgG antibody (Sigma, A0170) and 3,3′,5,5′-tetramethylbenzidine substrate (Invitrogen).

mouse B7H3-his = target: T2, mouse B7H3-his; assay: as above
Procedure: as §1

Row | binding result (hu 4Ig-B7H3 ECD-mIgG2a) | binding result (mouse B7H3-his) | Binder
1 | binds | binds | BGA-026 (Fc fusion, Llama VHH fused at the N terminal of human IgG1 Fc (VHH-Fc); also called BGA-026 chimeric; chimeric BGA-026) EVQLVESGGGLVQTGDSLRLSCAASPRTFQTYFMGWFRQAPGKEREFVSVINWSGGTSYYKDSVKGRFTISRDNAKNTVYLQMNNLKPEDTAVYYCAAKGSGTYDREGEYDYWGQGTQVTVSS[human IgG1 Fc with C220S (EU numbers) left out]
2 | binds | – | BGA-056 (Fc fusion, Llama VHH fused at the N terminal of human IgG1 Fc (VHH-Fc); also called BGA-056 chimeric; chimeric BGA-056) EVQLLESGGGLVQPGGSLRLSCAASGFTFSDYHMSWVRQAPGKGLEWVSGILNTGLSPTYAATVTGRFTISRDNAKNTLYLSMNSLKPEDTAVYYCAQGYYRATPSQANRGQGTQVTVSS[human IgG1 Fc with C220S (EU numbers) left out]
